# ± gives the standard error. Variants at the floor of the assay are shown more often than the library holds them.
# B1: glmS ribozyme (parent)
# chain: AUAAAAGCGCCAGAACUACAGAAAUGUAGUUGACGAGGAGGAGGUUUAUCGAAUUUUCGGCGGAUGCCUCCAAA
# Columns and labels:
# Details in all cases: with glucosamine-6-phosphate
# [1] = variants of: B1; test: self-cleavage kobs at 640 uM GlcN6P; higher = faster cleavage; RNA array
# Summary of the method: (§1)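 Tiles of sequenced MiSeq chips were imaged over ~14 h at 37 °C. On them, barcoded ribozyme variants had been transcribed in situ by E. coli RNA polymerase and were tracked via a hybridised Cy3 probe while glucosamine-6-phosphate (40 μM to 10 mM) in HEPES/KCl/Mg(OAc)2 buffer flowed in. Per-tile medians, normalised to baseline and to non-cleaving reference variants, were fit to one- or two-exponential decays for kobs, and weighted Michaelis–Menten fits gave kcat and KM.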
# [2] = variants of: B1; test: self-cleavage kobs at 160 uM GlcN6P; higher = faster cleavage; RNA array
# Summary of the method: as §1
# [3] = variants of: B1; test: self-cleavage kobs at 2500 uM GlcN6P; higher = faster cleavage; RNA array
# Summary of the method: as §1
# [4] = variants of: B1; test: self-cleavage kobs at 10000 uM GlcN6P; higher = faster cleavage; RNA array
# Summary of the method: as §1
Variant,self-cleavage kobs at 640 uM GlcN6P [1],self-cleavage kobs at 160 uM GlcN6P [2],self-cleavage kobs at 2500 uM GlcN6P [3],self-cleavage kobs at 10000 uM GlcN6P [4]
U45A A48C,0.000131 ± 2.3e-05 s⁻¹,,,
A39C A53U G62A,< 1e-05 s⁻¹,,,
A48G A52C U55C,< 1e-05 s⁻¹,< 1e-05 s⁻¹,,
C50G G63C,< 1e-05 s⁻¹,3.67e-05 ± 1.6e-05 s⁻¹,,
A48U G51U G63C C67U C70A,< 1e-05 s⁻¹,,,
G40U A42G G59C C68A,< 1e-05 s⁻¹,,< 1e-05 s⁻¹,
C8A C16A G40C U65G,,< 1e-05 s⁻¹,< 1e-05 s⁻¹,
C8A A15U U47C U55A G63C U65G,,< 1e-05 s⁻¹,,
A53U U55C A64G C71G,< 1e-05 s⁻¹,,,
U56G A64C,2.44e-05 ± 1.1e-05 s⁻¹,< 1e-05 s⁻¹,3.92e-05 ± 1.5e-05 s⁻¹,6.35e-05 ± 8.6e-06 s⁻¹
G40U G41U G44C C50A G60A,< 1e-05 s⁻¹,,,
G51A C58U A64C,< 1e-05 s⁻¹,< 1e-05 s⁻¹,,
A52C C58G G63C,< 1e-05 s⁻¹,,< 1e-05 s⁻¹,
A36U G44U C50A C61U,< 1e-05 s⁻¹,,< 1e-05 s⁻¹,
U57C C61G,< 1e-05 s⁻¹,< 1e-05 s⁻¹,,
A48G C67U C70U,< 1e-05 s⁻¹,,,
G41U A52G C58U C61G,< 1e-05 s⁻¹,,,
A36U C50A G51U,< 1e-05 s⁻¹,,,
G43C U49A,< 1e-05 s⁻¹,,,
G40U G44U A64U,< 1e-05 s⁻¹,,< 1e-05 s⁻¹,
A39U G41U G44U C71U,< 1e-05 s⁻¹,,,
C50G G51C G60A G66U,< 1e-05 s⁻¹,< 1e-05 s⁻¹,< 1e-05 s⁻¹,
U45C U49A,< 1e-05 s⁻¹,< 1e-05 s⁻¹,< 1e-05 s⁻¹,< 1e-05 s⁻¹
G44U U56C C58G,< 1e-05 s⁻¹,< 1e-05 s⁻¹,,
G51C U54C A64U,< 1e-05 s⁻¹,,< 1e-05 s⁻¹,

Variant,self-cleavage kobs at 640 uM GlcN6P [1],self-cleavage kobs at 160 uM GlcN6P [2],self-cleavage kobs at 2500 uM GlcN6P [3],self-cleavage kobs at 10000 uM GlcN6P [4]
A6C G38C G62C,,< 1e-05 s⁻¹,,
G7C G41A C61A,,< 1e-05 s⁻¹,,
G43U U49G A53U,< 1e-05 s⁻¹,,< 1e-05 s⁻¹,
G37A U47G U55G,0.000101 ± 1.6e-05 s⁻¹,,0.000183 ± 2.9e-05 s⁻¹,0.000412 ± 6.3e-05 s⁻¹
A36U A39G G43C,< 1e-05 s⁻¹,,,
A42C A52U A64G,< 1e-05 s⁻¹,,< 1e-05 s⁻¹,
G43U U46C U56G,< 1e-05 s⁻¹,,< 1e-05 s⁻¹,
G43U U57G,< 1e-05 s⁻¹,< 1e-05 s⁻¹,< 1e-05 s⁻¹,< 1e-05 s⁻¹
A42U U54C A64C,< 1e-05 s⁻¹,,,
U46G C58U C61U,< 1e-05 s⁻¹,,< 1e-05 s⁻¹,
C58U C61G,5.03e-05 ± 1.4e-05 s⁻¹,,,
A39C C61U,< 1e-05 s⁻¹,< 1e-05 s⁻¹,< 1e-05 s⁻¹,
A39U U49C G66U,< 1e-05 s⁻¹,,< 1e-05 s⁻¹,
G40U G41A U56G,< 1e-05 s⁻¹,,,
A39C U47A G60U G62A,< 1e-05 s⁻¹,,< 1e-05 s⁻¹,
G43U C50G,< 1e-05 s⁻¹,,,< 1e-05 s⁻¹
A6G G40C C50G,,< 1e-05 s⁻¹,,
G40A U57A C71U,6.1e-05 ± 2.3e-05 s⁻¹,,0.000149 ± 3.4e-05 s⁻¹,
G43A A52U,< 1e-05 s⁻¹,< 1e-05 s⁻¹,< 1e-05 s⁻¹,
A39G G43A G63U,< 1e-05 s⁻¹,,,
G43C U55C,< 1e-05 s⁻¹,< 1e-05 s⁻¹,< 1e-05 s⁻¹,< 1e-05 s⁻¹
U56C G66C,6.26e-05 ± 2.2e-05 s⁻¹,,8.66e-05 ± 2.4e-05 s⁻¹,
A52C G63C,< 1e-05 s⁻¹,,< 1e-05 s⁻¹,< 1e-05 s⁻¹
U56A C58A,0.000101 ± 1.3e-05 s⁻¹,3.2e-05 ± 1.1e-05 s⁻¹,0.000187 ± 2.3e-05 s⁻¹,
U57C A64U,< 1e-05 s⁻¹,< 1e-05 s⁻¹,,< 1e-05 s⁻¹

Variant,self-cleavage kobs at 640 uM GlcN6P [1],self-cleavage kobs at 160 uM GlcN6P [2],self-cleavage kobs at 2500 uM GlcN6P [3],self-cleavage kobs at 10000 uM GlcN6P [4]
A48C G66U,< 1e-05 s⁻¹,,,
G38A C58U C68G,5.5e-05 ± 2.5e-05 s⁻¹,,,
G40U G43U G51C U65C,< 1e-05 s⁻¹,,,
U47C G63U,< 1e-05 s⁻¹,< 1e-05 s⁻¹,,< 1e-05 s⁻¹
U47C G63A,< 1e-05 s⁻¹,,,
C61G G63U,< 1e-05 s⁻¹,,< 1e-05 s⁻¹,
G7C A33C G59A,,< 1e-05 s⁻¹,,
G44U U49C C70G,< 1e-05 s⁻¹,,,
A42G A48C,9.68e-05 ± 2.1e-05 s⁻¹,,0.000276 ± 8.7e-05 s⁻¹,0.000506 ± 7.8e-05 s⁻¹
C8A A33U C70U,,< 1e-05 s⁻¹,< 1e-05 s⁻¹,
A6U C61U A64G,,< 1e-05 s⁻¹,,
U69C C70G,4.82e-05 ± 1.6e-05 s⁻¹,,,
G60A U65A,< 1e-05 s⁻¹,< 1e-05 s⁻¹,< 1e-05 s⁻¹,
U57C G60U,< 1e-05 s⁻¹,< 1e-05 s⁻¹,< 1e-05 s⁻¹,< 1e-05 s⁻¹
A39C C58U U69G,< 1e-05 s⁻¹,,< 1e-05 s⁻¹,
U57C U65C,< 1e-05 s⁻¹,,,
A48U U54G G60U,< 1e-05 s⁻¹,,< 1e-05 s⁻¹,
G60U G63U C70A,< 1e-05 s⁻¹,,,
C50U A64G C68U,< 1e-05 s⁻¹,,,
G38A A42G,< 1e-05 s⁻¹,< 1e-05 s⁻¹,< 1e-05 s⁻¹,< 1e-05 s⁻¹
U54A A64G C68G,5.8e-05 ± 2.1e-05 s⁻¹,,0.000109 ± 3.5e-05 s⁻¹,
A42U C67A U69G C71U,4.51e-05 ± 2e-05 s⁻¹,,7.23e-05 ± 1.9e-05 s⁻¹,
G44A A52G G62U C67G,< 1e-05 s⁻¹,,< 1e-05 s⁻¹,
G44C U47A C50G,< 1e-05 s⁻¹,,< 1e-05 s⁻¹,
U65A C71G,0.000124 ± 1.6e-05 s⁻¹,4.31e-05 ± 1.1e-05 s⁻¹,0.000382 ± 9.3e-05 s⁻¹,0.000383 ± 8.9e-05 s⁻¹

Variant,self-cleavage kobs at 640 uM GlcN6P [1],self-cleavage kobs at 160 uM GlcN6P [2],self-cleavage kobs at 2500 uM GlcN6P [3],self-cleavage kobs at 10000 uM GlcN6P [4]
U46A A52G G63U,< 1e-05 s⁻¹,,,
A36U G37U A48U G60A U65C C67G,< 1e-05 s⁻¹,,,
G7C A12U,,< 1e-05 s⁻¹,,< 1e-05 s⁻¹
G41U U49A U69C,< 1e-05 s⁻¹,,< 1e-05 s⁻¹,
G44A C58G C70U C71G,< 1e-05 s⁻¹,,,
A36U C61G C70A,0.000101 ± 3e-05 s⁻¹,,,
C50G A52U U55A G63U A64U,< 1e-05 s⁻¹,,,
G44U G59A G66A C70U,< 1e-05 s⁻¹,,< 1e-05 s⁻¹,
G37A U49C,< 1e-05 s⁻¹,< 1e-05 s⁻¹,,
G40A C50G A52U U56G,< 1e-05 s⁻¹,,,
A39C A52G G63A,< 1e-05 s⁻¹,< 1e-05 s⁻¹,< 1e-05 s⁻¹,
G43U C70G C71A,< 1e-05 s⁻¹,,< 1e-05 s⁻¹,
U45G C61G G63A,< 1e-05 s⁻¹,,< 1e-05 s⁻¹,
A36U U45C U56C,< 1e-05 s⁻¹,,< 1e-05 s⁻¹,
A48U C61U G62A,< 1e-05 s⁻¹,,< 1e-05 s⁻¹,
G37C A39U G40U U49G,< 1e-05 s⁻¹,< 1e-05 s⁻¹,,
A42G C50G G51U U56G,< 1e-05 s⁻¹,,,
C61U C67G,< 1e-05 s⁻¹,,,
A36U U46A,< 1e-05 s⁻¹,< 1e-05 s⁻¹,< 1e-05 s⁻¹,< 1e-05 s⁻¹
C58G U65C,< 1e-05 s⁻¹,,< 1e-05 s⁻¹,
G43C U55A G59C,< 1e-05 s⁻¹,,< 1e-05 s⁻¹,
A36U U45G A48G,< 1e-05 s⁻¹,,,
A52U C71U,0.0001 ± 1.4e-05 s⁻¹,,0.000275 ± 2.9e-05 s⁻¹,0.000362 ± 3.4e-05 s⁻¹
G38A U45G,< 1e-05 s⁻¹,< 1e-05 s⁻¹,< 1e-05 s⁻¹,
A39G G63C,< 1e-05 s⁻¹,,,< 1e-05 s⁻¹

Variant,self-cleavage kobs at 640 uM GlcN6P [1],self-cleavage kobs at 160 uM GlcN6P [2],self-cleavage kobs at 2500 uM GlcN6P [3],self-cleavage kobs at 10000 uM GlcN6P [4]
A36G G44U G63A,< 1e-05 s⁻¹,,< 1e-05 s⁻¹,
G51U A53G U55A,< 1e-05 s⁻¹,,< 1e-05 s⁻¹,
G59C G66C,< 1e-05 s⁻¹,,,< 1e-05 s⁻¹
U46C G59C,< 1e-05 s⁻¹,,,
G43C A53G C70A,< 1e-05 s⁻¹,,,
U49C G62U,< 1e-05 s⁻¹,< 1e-05 s⁻¹,< 1e-05 s⁻¹,< 1e-05 s⁻¹
G40A G43U A53U,< 1e-05 s⁻¹,< 1e-05 s⁻¹,,
A6U C8A C16A,,< 1e-05 s⁻¹,,
A42U U46G,2.81e-05 ± 1.4e-05 s⁻¹,,3.86e-05 ± 1.2e-05 s⁻¹,5.41e-05 ± 8.3e-06 s⁻¹
G38A C67U C70U,< 1e-05 s⁻¹,< 1e-05 s⁻¹,,
G41C U49C G60U C67A,< 1e-05 s⁻¹,,,
C50A U54C,< 1e-05 s⁻¹,< 1e-05 s⁻¹,,
C8A U49G G63U,,< 1e-05 s⁻¹,< 1e-05 s⁻¹,
A52U A53C A64U,< 1e-05 s⁻¹,,,
U45C U47G G51U,< 1e-05 s⁻¹,,,
A52U C68U,6.72e-05 ± 8.8e-06 s⁻¹,1.96e-05 ± 8.9e-06 s⁻¹,0.000158 ± 1.4e-05 s⁻¹,0.000236 ± 2.4e-05 s⁻¹
G38C U46G A64C,< 1e-05 s⁻¹,,,< 1e-05 s⁻¹
A36U G41A U54G,< 1e-05 s⁻¹,< 1e-05 s⁻¹,,
U46A U47C C70A,9.01e-05 ± 2.2e-05 s⁻¹,,0.000206 ± 3.7e-05 s⁻¹,
G41C G43A C70U,< 1e-05 s⁻¹,,< 1e-05 s⁻¹,
A48G A53G C67G,6.02e-05 ± 2.2e-05 s⁻¹,,6.1e-05 ± 2.3e-05 s⁻¹,
